Results reported in a collection of fitness landscapes (doi:10.1126/science.1257360).
This is one part of the list.

B1: PhoQ; a variant is named by its letters at X, in order, P23837 (parent)
chain: MKKLLRLFFPLSLRVRFLLATAAVVLVLSLAYGMVALIGYSVSFDKTTFRLLRGESNLFYTLAKWENNKLHVELPENIDKQSPTMTLIYDENGQLLWAQRDVPWLMKMIQPDWLKSNGFHEIEADVNDTSLLLSGDHSIQQQLQEVREDDDDAEMTHSVAVNVYPATSRMPKLTIVVVDTIPVELKSSYMVWSWFIYVLSANLLLVIPLLWVAAWWSLRPIEALAKEVRELEEHNRELLNPATTRELTSLVRNLNRLLKSERERYDKYRTTLTDLTHSLKTPLXXLQXXLRSLRSEKMSVSDAEPVMLEQISRISQQIGYYLHRASMRGGTLLSRELHPVAPLLDNLTSALNKVYQRKGVNISLDISPEISFVGEQNDFVEVMGNVLDNACKYCLEFVEISARQTDEHLYIVVEDDGPGIPLSKREVIFDRGQRVDTLRPGQGVGLAVAREITEQYEGKIVAGESMLGGARMEVIFGRQHSAPKDE

Variants of: B1
Test: enrichment ratio after two sorts for PhoP signalling (ratio (wild type AVST 3.29)); higher = more functional
Settings: with PhoP (E. coli)
With MYRS the enrichment ratio was at most 0.25. HDFF was tested, and the enrichment ratio was at most 0.25. Variant FHMY has an enrichment ratio of at most 0.25. Work on LYAL yielded an enrichment ratio of at most 0.25. DIGM showed an enrichment ratio of at most 0.25. In the case of DTCK, the enrichment ratio is reported as at most 0.25. With MTCI the enrichment ratio was at most 0.25. QYKD was tested, and the enrichment ratio was at most 0.25. Variant QCCK has an enrichment ratio of at most 0.25. For QPCW, the enrichment ratio was at most 0.25. For EIAL, the enrichment ratio was 2.14. With ATLV the enrichment ratio was 12.7. Variant MRCD has an enrichment ratio of at most 0.25. With FRGW the enrichment ratio was at most 0.25. APDN showed an enrichment ratio of at most 0.25. With KDQA the enrichment ratio was at most 0.25. With GVHK the enrichment ratio was at most 0.25. Work on QNQV yielded an enrichment ratio of at most 0.25. DCSH was tested, and the enrichment ratio was at most 0.25. With IWQP the enrichment ratio was at most 0.25. WDKG gave an enrichment ratio of at most 0.25. KLIE gave an enrichment ratio of at most 0.25. TMLY gave an enrichment ratio of at most 0.25. TDAP gave an enrichment ratio of at most 0.25. With FMFG the enrichment ratio was at most 0.25. PILT was tested, and the enrichment ratio was at most 0.25. LPNY showed an enrichment ratio of at most 0.25. Variant VCGK has an enrichment ratio of at most 0.25. DLIV showed an enrichment ratio of at most 0.25. In the case of VDML, the enrichment ratio is reported as at most 0.25. For IWWN, the enrichment ratio was at most 0.25. TFMP showed an enrichment ratio of at most 0.25. In the case of MCKH, the enrichment ratio is reported as at most 0.25. In the case of TPIS, the enrichment ratio is reported as at most 0.25. Work on TTTR yielded an enrichment ratio of 0.88. In the case of ISNG, the enrichment ratio is reported as at most 0.25. RLWH showed an enrichment ratio of at most 0.25. With HEIV the enrichment ratio was at most 0.25. For RRKQ, the enrichment ratio was at most 0.25. PTER showed an enrichment ratio of at most 0.25. Work on MNMM yielded an enrichment ratio of 0.253. TCQM gave an enrichment ratio of at most 0.25. Work on FDFT yielded an enrichment ratio of at most 0.25. RGLI showed an enrichment ratio of at most 0.25. NGMG was tested, and the enrichment ratio was at most 0.25. RVTA gave an enrichment ratio of at most 0.25. MVNY showed an enrichment ratio of at most 0.25. Work on GPKG yielded an enrichment ratio of at most 0.25. Variant TIPW has an enrichment ratio of at most 0.25. Work on FEIL yielded an enrichment ratio of 0.675. INYS gave an enrichment ratio of at most 0.25. Variant WSTT has an enrichment ratio of at most 0.25. Variant DERF has an enrichment ratio of at most 0.25. For AWQP, the enrichment ratio was at most 0.25. QNFF showed an enrichment ratio of at most 0.25. PDIL was tested, and the enrichment ratio was at most 0.25. With MCMA the enrichment ratio was at most 0.25. EYPC was tested, and the enrichment ratio was at most 0.25. In the case of PLSE, the enrichment ratio is reported as at most 0.25. In the case of MRGV, the enrichment ratio is reported as at most 0.25. QSRL showed an enrichment ratio of at most 0.25. Variant WDLN has an enrichment ratio of at most 0.25. Variant IFMS has an enrichment ratio of at most 0.25. For LFAR, the enrichment ratio was at most 0.25. With CHHI the enrichment ratio was at most 0.25. With IQIC the enrichment ratio was at most 0.25. Variant GFQQ has an enrichment ratio of at most 0.25. LATE gave an enrichment ratio of at most 0.25. Work on PMIA yielded an enrichment ratio of at most 0.25. NEAV gave an enrichment ratio of at most 0.25. For VLSP, the enrichment ratio was at most 0.25. With IIYS the enrichment ratio was at most 0.25. VWQP showed an enrichment ratio of at most 0.25. WNGC was tested, and the enrichment ratio was at most 0.25. EMMT showed an enrichment ratio of at most 0.25. KFRN showed an enrichment ratio of at most 0.25. For WWFC, the enrichment ratio was at most 0.25. With DNYC the enrichment ratio was at most 0.25. With ENWP the enrichment ratio was at most 0.25. Work on WPRT yielded an enrichment ratio of at most 0.25. GIFW showed an enrichment ratio of at most 0.25. WRMM gave an enrichment ratio of at most 0.25. Variant PEVD has an enrichment ratio of at most 0.25. TGSW showed an enrichment ratio of at most 0.25. FFNS showed an enrichment ratio of at most 0.25. In the case of IHIV, the enrichment ratio is reported as at most 0.25. With DIEA the enrichment ratio was at most 0.25. Variant KVDV has an enrichment ratio of at most 0.25. With KGYE the enrichment ratio was at most 0.25. AFPW was tested, and the enrichment ratio was at most 0.25. Work on KMML yielded an enrichment ratio of at most 0.25. TLYG showed an enrichment ratio of at most 0.25. TDDQ gave an enrichment ratio of at most 0.25. Work on NVTH yielded an enrichment ratio of at most 0.25. With SIWM the enrichment ratio was at most 0.25. VEEP showed an enrichment ratio of at most 0.25. Variant KVMS has an enrichment ratio of at most 0.25. Work on KNLM yielded an enrichment ratio of at most 0.25. FVFV was tested, and the enrichment ratio was at most 0.25. AIGF showed an enrichment ratio of 11.6. In the case of VFMW, the enrichment ratio is reported as at most 0.25. For RVAF, the enrichment ratio was at most 0.25. Variant EHQP has an enrichment ratio of at most 0.25. Variant WNSC has an enrichment ratio of at most 0.25. With HFKE the enrichment ratio was at most 0.25. FWTF showed an enrichment ratio of at most 0.25. FNVP gave an enrichment ratio of at most 0.25. PFPC showed an enrichment ratio of at most 0.25. For DNRL, the enrichment ratio was at most 0.25. For MARH, the enrichment ratio was at most 0.25. Work on KCNY yielded an enrichment ratio of at most 0.25. Variant ICIV has an enrichment ratio of at most 0.25. ESMY was tested, and the enrichment ratio was at most 0.25. Work on LFQP yielded an enrichment ratio of at most 0.25. Variant QCSP has an enrichment ratio of at most 0.25. Work on PDKA yielded an enrichment ratio of at most 0.25. IWSA showed an enrichment ratio of at most 0.25. NMEH was tested, and the enrichment ratio was at most 0.25. With HMFM the enrichment ratio was at most 0.25. With RDFS the enrichment ratio was at most 0.25. Work on TEDY yielded an enrichment ratio of at most 0.25. LWNK gave an enrichment ratio of at most 0.25. Work on RAMR yielded an enrichment ratio of at most 0.25. Variant KTRF has an enrichment ratio of at most 0.25. RPIW was tested, and the enrichment ratio was at most 0.25. VSKN gave an enrichment ratio of at most 0.25. For ECWG, the enrichment ratio was at most 0.25. QSIA gave an enrichment ratio of at most 0.25. DCFP was tested, and the enrichment ratio was at most 0.25. Variant KAEL has an enrichment ratio of at most 0.25. IEQC gave an enrichment ratio of at most 0.25. EKIR was tested, and the enrichment ratio was at most 0.25. Variant KEIQ has an enrichment ratio of at most 0.25. PQGT showed an enrichment ratio of at most 0.25. Variant NFWA has an enrichment ratio of at most 0.25. YARS showed an enrichment ratio of at most 0.25. Work on TGMV yielded an enrichment ratio of 12.7. Variant PLME has an enrichment ratio of at most 0.25. With AERY the enrichment ratio was at most 0.25. FNHE showed an enrichment ratio of at most 0.25. In the case of PDGL, the enrichment ratio is reported as at most 0.25. For VLIM, the enrichment ratio was at most 0.25. FDME showed an enrichment ratio of at most 0.25. NASA gave an enrichment ratio of at most 0.25. In the case of LHLH, the enrichment ratio is reported as at most 0.25. Variant RSWN has an enrichment ratio of at most 0.25. Work on KQPM yielded an enrichment ratio of at most 0.25. In the case of DDDT, the enrichment ratio is reported as at most 0.25. With IEFH the enrichment ratio was at most 0.25. Variant FLMS has an enrichment ratio of at most 0.25. TSTL showed an enrichment ratio of 20.7. With VEVH the enrichment ratio was 1.54. PCCK gave an enrichment ratio of at most 0.25. Variant KFQL has an enrichment ratio of at most 0.25. For NGWS, the enrichment ratio was at most 0.25. With MREM the enrichment ratio was at most 0.25. With WWLT the enrichment ratio was at most 0.25. In the case of IMST, the enrichment ratio is reported as at most 0.25. In the case of DSYK, the enrichment ratio is reported as at most 0.25. GTIT showed an enrichment ratio of at most 0.25. In the case of GICY, the enrichment ratio is reported as 1.24. In the case of EVWI, the enrichment ratio is reported as at most 0.25. Work on SKPD yielded an enrichment ratio of at most 0.25. TAFM showed an enrichment ratio of at most 0.25. Work on VKSY yielded an enrichment ratio of at most 0.25. PWDW was tested, and the enrichment ratio was at most 0.25. TNPT showed an enrichment ratio of at most 0.25. MGLE showed an enrichment ratio of 9.21. YAQE was tested, and the enrichment ratio was at most 0.25. With VMRS the enrichment ratio was at most 0.25. Variant KTYS has an enrichment ratio of at most 0.25. LSNA showed an enrichment ratio of at most 0.25. PHAV was tested, and the enrichment ratio was at most 0.25. Variant FYEG has an enrichment ratio of at most 0.25. VEFT showed an enrichment ratio of 0.92. IALM was tested, and the enrichment ratio was 6.67. Variant PEGA has an enrichment ratio of at most 0.25. MQPM gave an enrichment ratio of at most 0.25. In the case of VNWA, the enrichment ratio is reported as at most 0.25. LWIM showed an enrichment ratio of at most 0.25. In the case of TQGK, the enrichment ratio is reported as at most 0.25. Work on FRCL yielded an enrichment ratio of at most 0.25. With WICC the enrichment ratio was at most 0.25. Work on KVQW yielded an enrichment ratio of at most 0.25. Variant VSKM has an enrichment ratio of at most 0.25. Work on FRFP yielded an enrichment ratio of at most 0.25. Variant PQHL has an enrichment ratio of at most 0.25. Work on IWCE yielded an enrichment ratio of at most 0.25. Work on GHLT yielded an enrichment ratio of at most 0.25. Work on FISI yielded an enrichment ratio of at most 0.25. In the case of IKEG, the enrichment ratio is reported as at most 0.25. Work on ACRS yielded an enrichment ratio of at most 0.25. Work on SHYR yielded an enrichment ratio of at most 0.25. AQHP gave an enrichment ratio of at most 0.25. In the case of TYKV, the enrichment ratio is reported as at most 0.25.
